Test results from PubChem BioAssay AID624202 (National Center for Advancing Translational Sciences (NCATS), 2012).
About 4,000 (1.1%) of roughly 380,000 compounds were called active. This list was built around the results that the source calls inconclusive (neither active nor inactive); the mix of calls is not that of the screen. The call rests on the fitted dose curve; in most records, active means well fitted activation curve with a large enough effect; inconclusive means small, poorly fitted or top-dose-only effect; inactive means no such curve, though single readings can be large or run the other way. Where the call is inconclusive, the potency comes from a doubtful curve fit.

Experiment: qHTS Assay to Identify Small Molecule Activators of BRCA1 Expression; further: nearly all actives have a fitted effect of over 80% in size
Settings: MCF7-BRCA1-FFLuc reporter, luminescence, 48 h; activation: at 46.1 µM (top of the series), scaled: vehicle 0%, 10 µM genistein 100% unless noted
Summary of the method: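 Activators of BRCA1 expression were detected as increased firefly luciferase luminescence in engineered MCF7 cells after 48 h compound incubation. Signals were scaled to genistein 10 microM as full activation.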
Potency means the concentration at half of the fitted maximal effect; tags describe the fitted curve by direction and shape.

Row | SMILES | Potency | activation
1 | O=C(Cn1nnc2ccccc21)c1ccc(Br)cc1 | inconclusive: 14.1 µM [activator, partial curve, poor fit] | 
2 | Cc1ccc(C)c(C(=O)CSc2nnc(C)s2)c1 |  | inactive: 48.6%
3 | COc1ccccc1OCCCCN1CCN(c2ccccc2OC)CC1 |  | inactive: -28%
4 | O=C(C1=C[C@@H](c2ccc(C(F)(F)F)cc2)C[C@@H](OCc2ccc(CO)cc2)O1)N1CCN(Cc2ccccc2)CC1 |  | inactive: 0%
5 | CCOc1ccc(NC(=O)Cc2ccccc2)cc1 | active: 7.08 µM | 
6 | CC(C)(C)c1cccc(S(=O)(=O)N2CCN(c3nc(-c4cccs4)nc4ccccc34)CC2)c1 |  | inactive: 0%
7 | COc1ccc(NC(=O)Nc2ccc(F)cc2)cn1 | inconclusive: 11.2 µM [activator, partial curve, poor fit] | 
8 | O=C(Cc1cccs1)Nc1nnc(-c2ccccc2)s1 | inconclusive: 14.1 µM [activator, partial curve, poor fit] | 
9 | Cc1ccccc1NC(=O)c1ccccc1NC(=O)c1cccs1 |  | inactive: -3.05%
10 | CN1C(=O)CC(N2CCC(c3nc4ccccc4s3)CC2)C1=O (stereo not given) |  | inactive: 22.4%
11 | COc1ccc(N2CCN(C(=O)c3ccc(CS(=O)c4cccc(Cl)c4)o3)CC2)cc1 (stereo not given) |  | inactive: -40.8%
12 | CCOC(=O)c1nn(-c2ccc(OC)cc2)c(=O)c2c(N)scc12 |  | inactive: -31.6%
13 | COc1ccc(OC)c2c1C(=O)c1ccccc1C2=O |  | inactive: 3.58%
14 | COc1ccccc1OCc1cc(C(=O)N2CCN(C)C(c3ccccc3)C2)no1 (stereo not given) | active: 10 µM | 
15 | O=C(Nc1ccc2nc(-c3ccco3)[nH]c2c1)c1cccs1 | inconclusive: 2.82 µM [activator, full curve, poor fit] | 
16 | CCCCc1c(C)nc2cc(-c3ccco3)[nH]n2c1=O | inconclusive: 14.1 µM [activator, partial curve, poor fit] | 
17 | COc1cc(Cl)c(C)cc1Nc1nc2ccccc2n2cnnc12 |  | inactive: 7.91%
18 | CCOC(=O)c1ccc(NC(=O)N(CC)CC)cc1 | active: 2.51 µM | 
19 | CCOc1ccc(CNC(=S)N/N=C\c2ccc([N+](=O)[O-])cc2)cc1 |  | inactive: -3.49%
20 | Cc1ccc(/C=N/NC(=O)Cc2c(F)cccc2Cl)s1 | inconclusive: 17.8 µM [activator, single point] | 
21 | CC(C)C[C@H]1CN(CCCC[C@H]2CNC(=O)C(=O)N2CCc2ccc(O)cc2)C(=O)C(=O)N1CCc1ccccc1 |  | inactive: 25.4%
22 | COc1ccc(Cc2c(-c3ccc(F)cc3)nc3ccc(Br)cn23)c(C)c1 | active: 8.91 µM | 
23 | Cc1ccc(-n2nnc(-c3cccnc3Cl)n2)cc1 | active: 3.55 µM | 
24 | O=C(Nc1nc2c(F)c(F)c(F)cc2s1)c1ccco1 | inconclusive: 0.631 µM [activator, full curve, poor fit] | 
25 | COc1ccc2occ(C(=O)c3ccc(N)cc3)c2c1 | inconclusive: 2.82 µM [activator, full curve, poor fit] | 

Row | SMILES | Potency | activation
26 | COC1=C(N)C(=O)c2nc(-c3nc(C(=O)O)c(C)c(-c4ccc(OC)c(OC)c4O)c3N)ccc2C1=O |  | inconclusive: -68.5% [activator]
27 | Cc1csc(NC(=O)c2cncc(Br)c2)n1 | inconclusive: 2.82 µM [activator, full curve, poor fit] | 
28 | CC/C(=N\NC(=O)c1ccoc1C)c1ccc(C)o1 | inconclusive: 25.1 µM [activator, single point] | 
29 | Cc1nc(SCC(=O)Nc2nc3ccccc3s2)c(C#N)c(C)c1C |  | inconclusive: -96.1% [activator]
30 | CC(=O)n1nc(-c2ccc(C)cc2)nc1NCc1ccco1 | active: 5.01 µM | 
31 | C=CCN1C(=O)/C(=C/C(=O)OC)S/C1=N\NC(=O)c1ccccc1 |  | inactive: -41.3%
32 | O=S(=O)(NCc1csc(-c2cccs2)n1)c1cccs1 |  | inconclusive: 46.2% [activator]
33 | COc1ccc2c(c1)sc1nc(-c3ccccc3)cn12 |  | inconclusive: -96.7% [activator]
34 | COc1ccc(NC(=O)CN(C)S(=O)(=O)c2ccc3c(c2)c(=O)n(C)c(=O)n3C)cc1 | inactive | 
35 | N/C(=N\OC(=O)c1ccccc1F)c1cccc([N+](=O)[O-])c1 | inconclusive: 2.51 µM [activator, full curve, poor fit] | 
36 | Cc1c(/C=C/C(=O)c2ccc(C(C)C)cc2)cnn1C | active: 11.2 µM | 
37 | Fc1cccc(NCc2cn3ccccc3n2)c1 | inconclusive: 1.58 µM [activator, partial curve, poor fit] | 
38 | CCOc1ccccc1NC(=O)COC(=O)CN(C)S(=O)(=O)c1ccc(C)cc1 |  | inactive: 6.21%
39 | O=[N+]([O-])c1ccc(N/N=C/c2cccc(O)c2)cc1 | inconclusive: 35.5 µM [activator, single point] | 
40 | C=CCOc1ccc2c(c1)c(=O)cc(C(=O)O)n2CC |  | inactive: -1.84%
41 | O=C(c1ccccc1)N1CCN(CC#Cc2ccccc2)CC1 | inconclusive: 10 µM [activator, partial curve, poor fit] | 
42 | C=C[C@@H]1c2cc(C)ccc2N(S(=O)(=O)c2ccc(C)cc2)[C@H](c2ccccc2)C1(C#N)C#N |  | inactive: 0%
43 | COc1ccc(Br)cc1/C=N/N1CCN(Cc2ccccc2)CC1 |  | inactive: -21.1%
44 | Cc1nn(-c2ccccc2)c(Cl)c1/C=N/NC(=O)c1ccnn1C | inconclusive: 12.6 µM [activator, partial curve, poor fit] | 
45 | Cc1cc(Cl)ccc1NC(=O)c1ccc2c(c1)OCO2 | inconclusive: 1 µM [activator, full curve, poor fit] | 
46 | c1ccc2c(Oc3ccc4c(c3)OCO4)nncc2c1 |  | inconclusive: 13.3% [activator]
47 | Cc1ccc(-n2cnc3cc(NCc4cccs4)ccc32)cc1 | inconclusive: 14.1 µM [activator, partial curve, poor fit] | 
48 | O=C(c1ccc2c3n(nc2c1)-c1ccc(Cl)cc1CO3)N1CCOCC1 | active: 6.31 µM | 
49 | CC1CN(c2ncnc3c2cnn3-c2ccc(Cl)cc2)CC(C)O1 (stereo not given) | active: 3.16 µM | 
50 | Cc1ccc(C(=O)NC23CC4CC(CC(C4)C2)C3)c(Cl)c1 | inconclusive: 14.1 µM [activator, partial curve, poor fit] | 
